The other results are listed elsewhere or left out.
Legend:
Experiment in all cases: glycan array binding signal (z-score within array); higher = stronger binding
Conditions in all cases: glycan notation: IUPAC condensed, linker removed
[1] = target: Gal(b1-4)Glc
Method in brief: (§1)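 Columns mapping to the same glycan were averaged after glycan names were converted to IUPAC-condensed notation. The data come from 3228 arrays in the Consortium for Functional Glycomics database, limited to those with an available protein sequence. Binding is reported as a within-array Z-score averaged across arrays of one protein sequence and across linkers.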

[2] = target: Gal(b1-4)Glc6S
Method in brief: as §1

[3] = target: Gal(b1-4)GlcNAc
Method in brief: as §1

[4] = target: Gal(b1-4)GlcNAc(a1-6)Gal(b1-4)GlcNAc
Method in brief: as §1

[5] = target: Gal(b1-4)GlcNAc(b1-2)Man
Method in brief: as §1

[6] = target: Gal(b1-4)GlcNAc(b1-2)Man(a1-3)Man(b1-4)GlcNAc(b1-4)GlcNAc
Method in brief: as §1

[7] = target: Gal(b1-4)GlcNAc(b1-2)Man(a1-3)[Gal(b1-4)GlcNAc(b1-2)Man(a1-6)]Man(b1-4)GlcNAc(b1-4)GlcNAc
Method in brief: as §1

[8] = target: Gal(b1-4)GlcNAc(b1-2)Man(a1-3)[Gal(b1-4)GlcNAc(b1-2)Man(a1-6)]Man(b1-4)GlcNAc(b1-4)[Fuc(a1-6)]GlcNAc
Method in brief: as §1

[9] = target: Gal(b1-4)GlcNAc(b1-2)Man(a1-3)[Gal(b1-4)GlcNAc(b1-2)Man(a1-6)][Gal(b1-4)GlcNAc(b1-4)]Man(b1-4)GlcNAc(b1-4)[Fuc(a1-6)]GlcNAc
Method in brief: as §1

[10] = target: Gal(b1-4)GlcNAc(b1-2)Man(a1-3)[Gal(b1-4)GlcNAc(b1-2)Man(a1-6)][GlcNAc(b1-4)]Man(b1-4)GlcNAc(b1-4)[Fuc(a1-6)]GlcNAc
Method in brief: as §1

[11] = target: Gal(b1-4)GlcNAc(b1-2)Man(a1-3)[GlcNAc(b1-2)Man(a1-6)]Man(b1-4)GlcNAc(b1-4)GlcNAc
Method in brief: as §1

[12] = target: Gal(b1-4)GlcNAc(b1-2)Man(a1-3)[GlcNAc(b1-4)][Gal(b1-4)GlcNAc(b1-2)Man(a1-6)]Man(b1-4)GlcNAc(b1-4)GlcNAc
Method in brief: as §1

[13] = target: Gal(b1-4)GlcNAc(b1-2)Man(a1-3)[Man(a1-6)]Man(b1-4)GlcNAc(b1-4)GlcNAc
Method in brief: as §1

[14] = target: Gal(b1-4)GlcNAc(b1-2)Man(a1-6)Man(b1-4)GlcNAc(b1-4)GlcNAc
Method in brief: as §1

[15] = target: Gal(b1-4)GlcNAc(b1-2)Man(a1-6)[GlcNAc(b1-2)Man(a1-3)]Man(b1-4)GlcNAc(b1-4)GlcNAc
Method in brief: as §1

[16] = target: Gal(b1-4)GlcNAc(b1-2)Man(a1-6)[Man(a1-3)]Man(b1-4)GlcNAc(b1-4)GlcNAc
Method in brief: as §1

[17] = target: Gal(b1-4)GlcNAc(b1-2)[Gal(b1-4)GlcNAc(b1-4)]Man(a1-3)[Gal(b1-4)GlcNAc(b1-2)Man(a1-6)]Man(b1-4)GlcNAc(b1-4)GlcNAc
Method in brief: as §1

[18] = target: Gal(b1-4)GlcNAc(b1-2)[Gal(b1-4)GlcNAc(b1-4)]Man(a1-3)[Gal(b1-4)GlcNAc(b1-2)[Gal(b1-4)GlcNAc(b1-6)]Man(a1-6)]Man(b1-4)GlcNAc(b1-4)GlcNAc
Method in brief: as §1

[19] = target: Gal(b1-4)GlcNAc(b1-2)[Gal(b1-4)GlcNAc(b1-4)]Man(a1-3)[GlcNAc(b1-4)][Gal(b1-4)GlcNAc(b1-2)Man(a1-6)]Man(b1-4)GlcNAc(b1-4)GlcNAc
Method in brief: as §1

[20] = target: Gal(b1-4)GlcNAc(b1-2)[Gal(b1-4)GlcNAc(b1-4)]Man(a1-3)[GlcNAc(b1-4)][Gal(b1-4)GlcNAc(b1-2)[Gal(b1-4)GlcNAc(b1-6)]Man(a1-6)]Man(b1-4)GlcNAc(b1-4)GlcNAc
Method in brief: as §1

[21] = target: Gal(b1-4)GlcNAc(b1-2)[Gal(b1-4)GlcNAc(b1-6)]Man(a1-6)[Gal(b1-4)GlcNAc(b1-2)Man(a1-3)]Man(b1-4)GlcNAc(b1-4)GlcNAc
Method in brief: as §1

[22] = target: Gal(b1-4)GlcNAc(b1-2)[Gal(b1-4)GlcNAc(b1-6)]Man(a1-6)[Gal(b1-4)GlcNAc(b1-2)Man(a1-3)]Man(b1-4)GlcNAc(b1-4)[Fuc(a1-6)]GlcNAc
Method in brief: as §1

[23] = target: Gal(b1-4)GlcNAc(b1-2)[Gal(b1-4)GlcNAc(b1-6)]Man(a1-6)[GlcNAc(b1-4)][Gal(b1-4)GlcNAc(b1-2)Man(a1-3)]Man(b1-4)GlcNAc(b1-4)GlcNAc
Method in brief: as §1

[24] = target: Gal(b1-4)GlcNAc(b1-2)[Gal(b1-4)GlcNAc(b1-6)]Man(a1-6)[GlcNAc(b1-4)][Gal(b1-4)GlcNAc(b1-2)[Gal(b1-4)GlcNAc(b1-4)]Man(a1-3)]Man(b1-4)GlcNAc(b1-4)[Fuc(a1-6)]GlcNAc
Method in brief: as §1

[25] = target: Gal(b1-4)GlcNAc(b1-3)Gal(b1-3)GalNAc
Method in brief: as §1

[26] = target: Gal(b1-4)GlcNAc(b1-3)Gal(b1-3)GlcNAc
Method in brief: as §1

[27] = target: Gal(b1-4)GlcNAc(b1-3)Gal(b1-4)Glc
Method in brief: as §1

[28] = target: Gal(b1-4)GlcNAc(b1-3)Gal(b1-4)GlcNAc
Method in brief: as §1

[29] = target: Gal(b1-4)GlcNAc(b1-3)Gal(b1-4)GlcNAc(b1-2)Man(a1-3)[Gal(b1-4)GlcNAc(b1-3)Gal(b1-4)GlcNAc(b1-2)Man(a1-6)]Man(b1-4)GlcNAc(b1-4)GlcNAc
Method in brief: as §1

[30] = target: Gal(b1-4)GlcNAc(b1-3)Gal(b1-4)GlcNAc(b1-2)Man(a1-3)[Gal(b1-4)GlcNAc(b1-3)Gal(b1-4)GlcNAc(b1-2)Man(a1-6)]Man(b1-4)GlcNAc(b1-4)[Fuc(a1-6)]GlcNAc
Method in brief: as §1

[31] = target: Gal(b1-4)GlcNAc(b1-3)Gal(b1-4)GlcNAc(b1-2)[Gal(b1-4)GlcNAc(b1-3)Gal(b1-4)GlcNAc(b1-6)]Man(a1-6)[Gal(b1-4)GlcNAc(b1-3)Gal(b1-4)GlcNAc(b1-2)Man(a1-3)]Man(b1-4)GlcNAc(b1-4)GlcNAc
Method in brief: as §1

[32] = target: Gal(b1-4)GlcNAc(b1-3)Gal(b1-4)GlcNAc(b1-2)[Gal(b1-4)GlcNAc(b1-3)Gal(b1-4)GlcNAc(b1-6)]Man(a1-6)[Gal(b1-4)GlcNAc(b1-3)Gal(b1-4)GlcNAc(b1-2)Man(a1-3)]Man(b1-4)GlcNAc(b1-4)[Fuc(a1-6)]GlcNAc
Method in brief: as §1

[33] = target: Gal(b1-4)GlcNAc(b1-3)Gal(b1-4)GlcNAc(b1-3)Gal(b1-4)GlcNAc
Method in brief: as §1

[34] = target: Gal(b1-4)GlcNAc(b1-3)Gal(b1-4)GlcNAc(b1-3)Gal(b1-4)GlcNAc(b1-2)Man(a1-3)[Gal(b1-4)GlcNAc(b1-3)Gal(b1-4)GlcNAc(b1-3)Gal(b1-4)GlcNAc(b1-2)Man(a1-6)]Man(b1-4)GlcNAc(b1-4)GlcNAc
Method in brief: as §1

[35] = target: Gal(b1-4)GlcNAc(b1-3)Gal(b1-4)GlcNAc(b1-3)Gal(b1-4)GlcNAc(b1-2)Man(a1-3)[Gal(b1-4)GlcNAc(b1-3)Gal(b1-4)GlcNAc(b1-3)Gal(b1-4)GlcNAc(b1-2)Man(a1-6)]Man(b1-4)GlcNAc(b1-4)[Fuc(a1-6)]GlcNAc
Method in brief: as §1

[36] = target: Gal(b1-4)GlcNAc(b1-3)Gal(b1-4)GlcNAc(b1-3)Gal(b1-4)GlcNAc(b1-2)[Gal(b1-4)GlcNAc(b1-3)Gal(b1-4)GlcNAc(b1-3)Gal(b1-4)GlcNAc(b1-6)]Man(a1-6)[Gal(b1-4)GlcNAc(b1-3)Gal(b1-4)GlcNAc(b1-3)Gal(b1-4)GlcNAc(b1-2)Man(a1-3)]Man(b1-4)GlcNAc(b1-4)[Fuc(a1-6)]GlcNAc
Method in brief: as §1

[37] = target: Gal(b1-4)GlcNAc(b1-3)Gal(b1-4)GlcNAc(b1-3)Gal(b1-4)GlcNAc(b1-3)Gal(b1-4)GlcNAc(b1-2)Man(a1-3)[Gal(b1-4)GlcNAc(b1-3)Gal(b1-4)GlcNAc(b1-3)Gal(b1-4)GlcNAc(b1-3)Gal(b1-4)GlcNAc(b1-2)Man(a1-6)]Man(b1-4)GlcNAc(b1-4)GlcNAc
Method in brief: as §1

B1: PX14343H-pdi-506-26-506 (Parabacteroides distasonis) (protein)
chain: QPTGTMTTDSKLTSKESALALTNSAYLKNTVFNKMTPGWGCNTILLLEYMTGKATSENSQSNYKDFQDLLVSDRSLYIEDWWQDCYAGIANCNLALQKLGEFENLDASLVNGYMAEVKFMRALYYFYLVRIFGDVPKITTVQSELGELQVSRAPVKEIYDEIIIPDLLEAEQSDLAFSDHTGRVSMGAVKALLADVYLTYAGYPLQGGKSYYAESAKRSLEVIKSNEYTLFTDYESLRLPSQNNKGEFIYQVQFSLNKRHNESVRIFLPSRSGISAYDLEYGSLIPTKEFVESFEKGDKRTEEKQYFFTNYKGHPSKFSPGAAELEFMDLNGYYIYKFFDQVAVDNTAKSDLNWSVYRYTDVLLMYAEAQVNADGTPNQQSIDIVNQIRGRAGLAPFKQTNASAFLEEVWDQRYFDLCYENKMWFDMLRTRKIRDDKSGEYVDFIGYKTNWGKVYTETQLLFPIPLSERQANPNLTQNQGY
B1 was tested, and the “glycan array binding signal (z-score)” value [1] was -0.482, the “glycan array binding signal (z-score)” value [2] was -0.214 and the “glycan array binding signal (z-score)” value [3] was -0.33. For the same binder, the “glycan array binding signal (z-score)” value [4] was -0.512, the “glycan array binding signal (z-score)” value [5] was -0.265 and the “glycan array binding signal (z-score)” value [6] was -0.382. The “glycan array binding signal (z-score)” value [7] was -0.479, the “glycan array binding signal (z-score)” value [8] was -0.332 and the “glycan array binding signal (z-score)” value [9] was 1.2. For the same binder, the “glycan array binding signal (z-score)” value [10] was -0.121, the “glycan array binding signal (z-score)” value [11] was -0.288 and the “glycan array binding signal (z-score)” value [12] was 1.28. For the same binder, the “glycan array binding signal (z-score)” value [13] was -0.023, the “glycan array binding signal (z-score)” value [14] was -0.187 and the “glycan array binding signal (z-score)” value [15] was -0.416. For the same binder, the “glycan array binding signal (z-score)” value [16] was 5.33, the “glycan array binding signal (z-score)” value [17] was 0.486 and the “glycan array binding signal (z-score)” value [18] was -0.221. The “glycan array binding signal (z-score)” value [19] was 0.393, the “glycan array binding signal (z-score)” value [20] was 3.03 and the “glycan array binding signal (z-score)” value [21] was 0.998. For the same binder, the “glycan array binding signal (z-score)” value [22] was 0.886, the “glycan array binding signal (z-score)” value [23] was 1.36 and the “glycan array binding signal (z-score)” value [24] was -0.104. For the same binder, the “glycan array binding signal (z-score)” value [25] was -0.046, the “glycan array binding signal (z-score)” value [26] was -0.366 and the “glycan array binding signal (z-score)” value [27] was -0.288. The “glycan array binding signal (z-score)” value [28] was 0.019, the “glycan array binding signal (z-score)” value [29] was -0.082 and the “glycan array binding signal (z-score)” value [30] was 6.92. For the same binder, the “glycan array binding signal (z-score)” value [31] was 1.14, the “glycan array binding signal (z-score)” value [32] was 1.4 and the “glycan array binding signal (z-score)” value [33] was -0.114. The “glycan array binding signal (z-score)” value [34] was 3.24, the “glycan array binding signal (z-score)” value [35] was 6.72 and the “glycan array binding signal (z-score)” value [36] was 0.73. The “glycan array binding signal (z-score)” value [37] was 0.477.
